# In PubChem BioAssay AID602310 (National Center for Advancing Translational Sciences (NCATS), 2012):
# Values joined by “and” are separate entries in the source; they are usually repeats but may differ in a detail not shown here. Equal entries are not always repeated. About 310 (0.076%) of roughly 410,000 compounds were called active. This list was built around the results that the source calls inconclusive (neither active nor inactive); the mix of calls is not that of the screen. Calls come from the whole dose curve; as a rule, active = well fitted curve in the direction sought with a large enough effect; inconclusive = small, poorly fitted or top-dose-only effect; inactive = flat fitted curve, though single readings scatter. Where the call is inconclusive, the potency comes from a doubtful curve fit.
# Biological target: DNA dC->dU-editing enzyme APOBEC-3G (Homo sapiens) (UniProt Q9HC16)
# Experiment: qHTS for Inhibitors of Vif-A3G Interactions: qHTS; note: nearly all actives have a fitted effect of over 60% in size
# Conditions: HeLa A3G-eYFP + Vif (tagged APOBEC3G with the HIV-1 protein that degrades it), YFP fluorescence, overnight; series mostly up to 46.1 µM
# How it was run: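 HeLa cells stably expressing Vif and C-terminally eYFP-tagged A3G, seeded overnight at 37 deg C, then exposed to compound by pintool overnight at 37 deg C. Rise in yellow fluorescence (Ex 488/Em 500-530, Acumen) marks blocked Vif-driven A3G degradation.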
# Potency is the fitted concentration of half-maximal effect; tags give direction and shape of the fitted curve.
# UniProt Q9HC16, sequence (Q9HC16 whole entry, looked up): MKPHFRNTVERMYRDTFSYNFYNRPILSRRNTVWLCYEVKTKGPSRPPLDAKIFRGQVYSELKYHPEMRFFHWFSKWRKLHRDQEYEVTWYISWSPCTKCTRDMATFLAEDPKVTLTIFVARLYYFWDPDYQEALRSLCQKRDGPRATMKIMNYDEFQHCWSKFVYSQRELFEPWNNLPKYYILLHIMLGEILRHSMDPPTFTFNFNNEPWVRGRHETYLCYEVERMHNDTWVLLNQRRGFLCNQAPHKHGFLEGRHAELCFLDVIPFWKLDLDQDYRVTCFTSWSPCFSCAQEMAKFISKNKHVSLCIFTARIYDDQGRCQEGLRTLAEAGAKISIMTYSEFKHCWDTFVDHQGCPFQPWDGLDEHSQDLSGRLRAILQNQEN
row,SMILES,Potency
1,COc1ccc(C(=O)c2sc3nc(-c4ccc(C)cc4)cc(C(F)(F)F)c3c2N)cc1,active: 8.91 µM
2,CSc1ccc(S(=O)(=O)NCC(=O)OCC(=O)NCc2cccs2)cc1[N+](=O)[O-],inactive
3,Cc1cc2nc(-c3ccc(SCc4ccccn4)nc3)[nH]c2cc1C,"inconclusive: 22.4 µM [inhibitor, single point]"
4,CCOC(=O)C1=C(CSc2nc(-c3ccccc3)ccc2C#N)OC(N)=C(C#N)C1c1cccnc1 (stereo unspecified),"inconclusive: 22.4 µM [inhibitor, partial curve, poor fit]"
5,CC(OC(=O)/C(C#N)=C/c1ccc(N(C)C)cc1)C(=O)N(C)c1ccccc1 (stereo unspecified),"inconclusive: 12.6 µM [inhibitor, single point]"
6,CC1C/C(=C/c2cccs2)C(=O)/C(=C/c2cccs2)C1 (stereo unspecified),"inconclusive: 8.91 µM [inhibitor, partial curve]"
7,CC(=O)c1cc(NC(=O)c2ccc(C)cc2)c(=O)oc1/C=C/N(C)C,active: 12.6 µM
8,CCOc1ccccc1Nc1sc(C(=O)c2ccccc2)c(N)c1S(=O)(=O)c1ccc(C)cc1,"inconclusive: 3.55 µM [inhibitor, partial curve, poor fit]"
9,Cc1onc(-c2c(Cl)cccc2Cl)c1NC(=O)N(C)N,"inconclusive: 35.5 µM [inhibitor, single point]"
10,Cn1cc(/C=C/c2cc[n+](C)cc2)c2cc(F)ccc21,"inconclusive: 3.55 µM [inhibitor, partial curve, poor fit]"
11,O=C1N/C(=C/c2ccc(N3CCOCC3)o2)C(=O)N1c1ccccc1,"inconclusive: 35.5 µM [inhibitor, single point]"
12,CC1(C)CC(=O)c2c(O)cc(O)cc2O1,inactive
13,CCOc1ccc(-c2cc(CCCC(=O)NCCc3cc(OC)c(OC)c(OC)c3)no2)cc1,inactive
14,Cc1cccc(NC(=O)CCNS(=O)(=O)c2ccc3c(c2)CCN3C(=O)C2CC2)c1,inactive
15,CC(=O)/C=C/c1ccc2ccccc2n1,"inconclusive: 12.6 µM [inhibitor, single point]"
16,COc1ccc(OC)c(S(=O)(=O)N/N=C\c2cn(CC(N)=O)c3ccccc23)c1,"inconclusive: 12.6 µM [inhibitor, partial curve, poor fit]"
17,N#CC1=C(N)NC(SCc2ccccc2)=C(C#N)C12CCCC2,"inconclusive: 10 µM [inhibitor, partial curve, poor fit]"
18,CCOC(=O)C1(CCOc2ccccc2)CCN(Cc2ccccc2O)CC1,inactive
19,COc1cc(C(=O)NCc2ccccn2)ccc1OCc1c(C)noc1C,"inconclusive: 5.62 µM [inhibitor, single point]"
20,CC1(c2ccc(Cl)cc2)CC(C)(C)N(C(=O)c2cccc(F)c2)c2ccccc21 (stereo unspecified),inactive
21,O=C1/C(=C/c2ccccc2O)SC(=S)N1Cc1cccnc1,"inconclusive: 7.94 µM [inhibitor, partial curve]"
22,Oc1cc(-c2ccncc2)cc2cccnc12,"inconclusive: 5.62 µM [inhibitor, single point]"

row,SMILES,Potency
1,CC1=CC(C)(C)Nc2ccc(OC(=O)c3cccnc3)cc21,"inconclusive: 35.5 µM [inhibitor, single point]"
2,Cc1ccc(-c2csc(NC(=O)c3ccc([N+](=O)[O-])o3)n2)cc1,"inconclusive: 3.98 µM [inhibitor, full curve, poor fit]"
3,O=C1NC(=Nc2ccccc2)S/C1=C\C=C\c1ccco1,"inconclusive: 7.94 µM [inhibitor, partial curve, poor fit]"
4,COc1cc(-c2cnc3c(NC=O)cc(-c4cccc(NC(C)=O)c4)cn23)cc(OC)c1OC,"inconclusive: 0.355 µM [inhibitor, full curve, poor fit]"
5,Cc1ccc(NC(=O)c2ccc(S(=O)(=O)N3CCCCC3)cc2)cc1,inactive
6,Cc1ccc2nc(-c3ccco3)c(CC3CCCCC3)n2c1,"inconclusive: 35.5 µM [inhibitor, single point]"
7,Cc1ccc(SCCN2CCC(C(C)(C)C)CCC2=O)cc1 (stereo unspecified),inactive
8,Cc1ccc(NC(=O)NNC(=O)Cn2nc(-c3ccccc3)c(-c3ccccc3)c(C#N)c2=O)cc1,"inconclusive: 2.82 µM [inhibitor, partial curve, poor fit]"
9,Nn1c(SCC(=O)Nc2ccccc2)nnc1C1CCCCC1,inactive
10,CC1(C)CC[C@]2(C(=O)n3ccnc3)CC[C@]3(C)[C@H](C(=O)C=C4[C@@]5(C)C=C(C#N)C(=O)C(C)(C)[C@@H]5CC[C@]43C)[C@@H]2C1,"inconclusive: 3.55 µM [inhibitor, full curve, poor fit]"
11,CCCCN(CCC#N)c1ccc(/C=C/c2ccnc3ccccc23)cc1,"inconclusive: 17.8 µM [inhibitor, single point]"
12,COc1cc(/C=N/N2CCN(C3c4ccccc4-c4ccccc43)CC2)ccc1O,"inconclusive: 3.55 µM [inhibitor, full curve, poor fit]"
13,COC(=O)c1ccc(C(=O)NC2CC(C)(C)Cc3c2cnn3-c2ccc(F)cc2)nc1 (stereo unspecified),"inconclusive: 7.08 µM [inhibitor, partial curve, poor fit]"
14,C=C(C)c1nc(Oc2ccccc2)nc(Oc2ccccc2)n1,"inconclusive: 3.55 µM [inhibitor, full curve, poor fit]"
15,N=c1n(CCN2CCCC2)c2ccccc2n1CC(O)c1ccc(Cl)c(Cl)c1 (stereo unspecified),"inconclusive: 20 µM [inhibitor, single point]"
16,O=C1/C(=C/c2ccncc2)SC(=S)N1Cc1ccccc1,"inconclusive: 35.5 µM [inhibitor, single point]"
17,COc1ccc(NC(=O)CC2C(=O)NCCN2C(=O)Nc2ccc(C(F)(F)F)cc2)cc1 (stereo unspecified),inactive
18,Cc1ccc(-n2c(=S)[nH]c3sc4c(c3c2=O)CCC4)cc1,inactive
19,COc1cc(-c2nc3cnccn3c2Nc2ccc3c(c2)OCCO3)ccc1O,"inconclusive: 22.4 µM [inhibitor, single point]"
20,CCOCCCNC(=O)c1ccc2c(c1)N(CC)C(=O)c1ccccc1S2=O (stereo unspecified),"inconclusive: 35.5 µM [inhibitor, single point]"
21,O=C(Cn1nc(C(F)(F)F)c2c1CCCC2)Nc1ccc(F)c(Cl)c1,inactive
22,O=C(COc1ccc(Br)cc1CO)Nc1ccc(S(=O)(=O)N2CCCC2)cc1,inactive

row,SMILES,Potency
1,O=C(N/N=C/c1sc2ccccc2c1O)c1ccccc1,"inconclusive: 20 µM [inhibitor, partial curve, poor fit]"
2,CCN1CC=C2C(C#N)=C(N)C(C#N)(C#N)C(CCc3ccccc3)C2C1 (stereo unspecified),"inconclusive: 31.6 µM [inhibitor, partial curve, poor fit]"
3,O=C(CSc1nnc(CNc2ccc(F)cc2)o1)OC1CCCCC1,inactive
4,CCOc1ccc2c(c1)nc(SCC(=O)c1ccc(Br)s1)n2C,"inconclusive: 22.4 µM [inhibitor, single point]"
5,Cc1ccc2nc(SC(Cc3cc(Cl)ccc3Cl)C(=O)O)[nH]c2c1 (stereo unspecified),inactive
6,Cc1cc(Cl)ccc1NC(=O)C1CCN(S(=O)(=O)c2ccc3[nH]c(=O)ccc3c2)CC1,inactive
7,COc1ccccc1/C=C/C(=O)NC(=S)NC(C)C,inactive
8,COc1ccc(C(NC(C)=O)c2cc(Cl)c3cccnc3c2O)cc1OC (stereo unspecified),"inconclusive: 3.98 µM [inhibitor, single point] and inconclusive: 3.98 µM [inhibitor, full curve, poor fit]"
9,COc1cc(/C=C/c2nnc3c4ccccc4ncn23)cc(OC)c1OC,"inconclusive: 35.5 µM [inhibitor, single point]"
10,COc1cc(OC)cc(C(=O)NCc2ccc3c(c2)cc(C)n3C)c1,"inconclusive: 20 µM [inhibitor, single point]"
11,COc1cccc(/C=C(\C#N)c2nc3ccc(C)cc3[nH]2)c1,"inconclusive: 15.8 µM [inhibitor, single point]"
12,COc1cc2c(ccc3cc(OC)c(OC)c(O)c32)cc1O,inactive
13,O=C(NCCN1C(=O)S/C(=C\c2cccc(Cl)c2Cl)C1=O)C1=COCCO1,"inconclusive: 7.08 µM [inhibitor, partial curve, poor fit]"
14,COc1ccccc1Nc1nc(-c2sc(NC(=O)CC(C)C)nc2C)cs1,"inconclusive: 22.4 µM [inhibitor, single point]"
15,Cc1ccc(S(=O)(=O)Cc2ccc(C(=O)N3CCN(c4cc(C)ccc4C)CC3)o2)cc1,"inconclusive: 6.31 µM [inhibitor, single point]"
16,CN1CC=C2C(C#N)=C(N)C(C#N)(C#N)C(Cc3ccccc3)C2C1 (stereo unspecified),inactive
17,CCN1C(=O)C(O)(C2COC(C)(C)CC2=O)c2cc(Br)ccc21 (stereo unspecified),"inconclusive: 25.1 µM [inhibitor, single point]"
18,O=c1c2c3c(sc2nc(NCCO)n1CCc1ccccc1)CCCCC3,"inconclusive: 10 µM [inhibitor, partial curve, poor fit]"
19,O=C(NCC1CCCO1)C(c1cccs1)N(Cc1cccs1)C(=O)c1ccc(-c2ccccc2)[nH]1 (stereo unspecified),"inconclusive: 15.8 µM [inhibitor, single point]"
20,CNc1nc(-c2cccs2)cc(C(F)(F)F)c1C#N,"inconclusive: 7.94 µM [inhibitor, partial curve]"
21,COc1cc(/C=N/Nc2nc3ccccc3s2)ccc1O,"inconclusive: 15.8 µM [inhibitor, single point]"
22,Clc1ccc2c(c1)C(C1=NCCN1)c1ccccc1CS2 (stereo unspecified),"inconclusive: 1.26 µM [inhibitor, full curve]"
